Results on two molecules are retold here after patent publication US20220153864A1 (Pieris, published 2022).

The EC50 is the concentration giving half of the maximal effect. In general, Kd refers to the equilibrium constant for the complex coming apart. A word on the koff: it is a measure of how fast the partners let go of each other. What is called kon is the second-order rate constant of association.

The target of test [1] is T1, recombinant cynomolgus GPC3 (cyGPC3) (R&D Systems) (cynomolgus, UniProt A0A2K5VK50 24-558). The test can be described thus: ELISA, cyGPC3 coated. As for the experimental part: (§1) Recombinant huGPC3 (R&D Systems) at the concentration of 1 μg/mL in PBS was coated overnight on microtiter plates at 4° C. After five washes with 100 μL PBS-0.05% T (PBS supplemented with 0.05% (v/v) Tween 20), the plates were blocked with 2% BSA (w/v) in PBS-0.1% T (PBS-0.1% T-2% BSA) for 1 h at room temperature. After washing with 100 μL PBS-0.05% T (PBS supplemented with 0.05% (v/v) Tween 20) five times, exemplary fusion proteins (SEQ ID NOs: 87 and […] and CD137Ac1-Fusion 1 to 7) or the GPC3 antibody as include in the fusion proteins (SEQ ID NOs: 81 and 82) at different concentrations were added to the wells and incubated for 1 h at room temperature, followed by another wash step. Bound molecules under study were detected by incubation with 1:5000 diluted anti-human IgG Fc-HRP (Jackson Laboratory) in PBS-0.1% T-2% BSA. After an additional wash step, fluorogenic HRP substrate (QuantaBlu, Thermo) was added to each well and the fluorescence intensity was detected using a fluorescence microplate reader.
(§2) The same ELISA setup was also employed to determine the binding potency of fusion proteins to cynomolgus GPC3 and huCD137, where recombinant cyGPC3 (R&D Systems) or huCD137-His (recombinant human CD137 with C-terminal polyhistidine tag, R&D Systems) was instead coated on a microtiter plate. The testing agents were similarly titrated and bound agents were detected via anti-NGAL-HRP. […]
Background: ELISA stands for enzyme-linked immunosorbent assay.

Test [2] concerns the target T1, recombinant cynomolgus GPC3 (cyGPC3) …. The test can be described thus: SPR (Biacore T200), cyGPC3 as analyte, 1:1 model. As for the experimental part: (§3) The anti-human IgG Fc antibody (GE Healthcare) was immobilized on a CM5 sensor chip using standard amine chemistry: the carboxyl groups on the chip were activated using 1-ethyl-3-(3-dimethylaminopropyl)-carbodiimide (EDC) and N-hydroxysuccinimide (NHS). Subsequently, anti-human IgG Fc antibody solution (GE Healthcare) at a concentration of 25 μg/mL in 10 mM sodium acetate (pH 5.0) was applied at a flow rate of 5 μL/min until an immobilization level of 6000-10000 resonance units (RU) was achieved. Residual non-reacted NHS-esters were blocked by passing a solution of 1M ethanolamine across the surface. The reference channel was treated in an analogous manner. Subsequently, testing fusion proteins (SEQ ID NOs: 87 and 82 and CD137Ac1-Fusion 1) or the GPC3 antibody as included in the fusion protein (SEQ ID NOs: 81 and 82) at 0.2 μg/ml in HBS-EP+ buffer was captured by the anti-human IgG-Fc antibody at the chip surface for 180 s at a flow rate of 10 μL/min. After each capture step, the needle was washed.
(§4) The binding assay was carried out with a contact time of 180 s, a dissociation time of 900 s, and a flow rate of 30 μL/min. After each injection, the needle was cleaned with 40 mM NaOH+20% isopropanol. All measurements were performed at 25° C. […] Prior to the protein measurements, three startup cycles were performed for conditioning purposes. Data were evaluated with Biacore T200 Evaluation software (v2.0). Double referencing was used and the 1:1 binding model was used to fit the raw data.
A general note: Surface plasmon resonance follows binding to a sensor surface in real time, without labels.

The target of test [3] is T2, recombinant human GPC3 (huGPC3) (R&D Systems) (human, UniProt P51654 25-559).
T2 construct: also called biotinylated huGPC3
The test can be described thus: SPR (Biacore T200), huGPC3 as analyte, 1:1 model. As for the experimental part: as §3, §4

Test [4] addresses T3, huCD137-His (recombinant human CD137 with C-terminal polyhistidine tag, R&D Systems) (human, UniProt Q07011 24-186).
T3 construct: also called biotinylated huCD137-His; not shown: C-terminal polyhistidine tag
T3 sequence (Q07011 24-255): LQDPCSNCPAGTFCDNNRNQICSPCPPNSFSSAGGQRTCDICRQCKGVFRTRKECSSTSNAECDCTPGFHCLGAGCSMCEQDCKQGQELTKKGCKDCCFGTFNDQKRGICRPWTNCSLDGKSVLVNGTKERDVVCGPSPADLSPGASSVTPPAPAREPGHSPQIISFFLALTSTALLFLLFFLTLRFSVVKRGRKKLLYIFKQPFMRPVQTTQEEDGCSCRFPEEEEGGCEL
Description: ELISA, huCD137-His coated, detection anti-NGAL-HRP. As for the experimental part: as §1, §2

Test [5] addresses T2, recombinant human GPC3 (huGPC3) (R&D …). The test can be described thus: ELISA, huGPC3 coated, detection anti-human IgG Fc-HRP. As for the experimental part:
as §1
Exemplary results are depicted in FIG. 2A-2D, together with the fit curves resulting from a 1:1 binding sigmoidal fit, where the EC₅₀ value and the maximum signal were free parameters, and the slope was fixed to unity.

The target of test [6] is T4, human CD137 expressed on cells (Flp-In-CHO::huCD137; NFkB-luc2/CD137 Jurkat cells) (human, UniProt Q07011 24-255).
T4 construct: whole, on cells; also called human CD137-expressing cells
The test can be described thus: flow cytometry on Flp-In-CHO::huCD137 cells, anti-human IgG detection. As for the experimental part: For flow cytometric analysis, respective cell lines were incubated with an exemplary fusion protein (SEQ ID NOs: 87 and 82), the GPC3 antibody or the CD137 specific lipocalin mutein (Fc fusion) as included in the fusion protein (SEQ ID NOs: 81 and 82 and SEQ ID NO: 98, respectively), a reference CD137 antibody SEQ ID NOs: 26 and 27, or an isotype control (SEQ ID NOs: 24 and 25) and detected using a fluorescently labeled anti-human IgG antibody in FACS analysis as described in the following:
(§5) 5×10⁴ cells per well were incubated for 1 h in ice-cold PBS containing 5% fetal calf serum (PBS-FCS). A dilution series of the testing molecule were added to the cells and incubated for 1 h on ice. Cells were washed twice with PBS and then incubated with a goat anti-hlgG Alexa647-labeled antibody or goat anti-hlgG Alexa488-labeled antibody for 30 min on ice. Cells were subsequently washed and analyzed using iQue Flow cytometer (Intellicyte Screener). Mean geometric fluorescent signals were plotted and fitted with Graphpad software. The geometric means of the fluorescence intensity were used to calculate EC₅₀ values using a four-parameter logistic regression with bottom fixed to background.
In general terms: In flow cytometry, cells or beads pass a laser one at a time.

Test [7] deals with T3, huCD137-His (recombinant human CD137 …). Description: dual-binding ELISA: huCD137-His coated, fusion titrated, detection with biotinylated huGPC3. As for the experimental part:
(§6) Recombinant huCD137-His (R&D Systems) in PBS (1 μg/mL) was coated overnight on microtiter plates at 4° C. The plates were washed five times after each incubation step with 100 μL PBS-0.05% T. The plates were blocked with PBS-0.1% T-2% BSA for 1 h at room temperature and subsequently washed again. Different concentrations of tested fusion proteins were added to the wells and incubated for 1 h at room temperature, followed by a wash step. Subsequently, biotinylated huGPC3 was added at a constant concentration of 1 μg/mL in PBS-0.1% T-2% BSA for 1 h. After washing, a 1:5000 dilution of ExtrAvidin-HRP (Sigma-Aldrich) in PBS-0.1% T-2% BSA was added to the wells and incubated for 1 h. After an additional wash step, fluorogenic HRP substrate (QuantaBlu, Thermo) was added to each well, and the fluorescence intensity was detected using a fluorescence microplate reader.
(§7) Exemplary dual binding data are shown in FIG. 3, together with the fit curves resulting from a 1:1 sigmoidal binding fit, where the EC₅₀ value and the maximum signal were free parameters, and the slope was fixed to unity.

Test [8] deals with T2, recombinant human GPC3 (huGPC3) (R&D …). Description: dual-binding ELISA: huGPC3 coated, fusion titrated, detection with biotinylated huCD137-His. As for the experimental part: as §6
The dual binding of fusion proteins was also tested with a reverse set-up where recombinant huGPC3 (R&D Systems) was coated on microtiter plates at 1 μg/ml and the bound fusion proteins were detected via the addition of 5 μg/mL biotinylated huCD137-His.
as §7

For test [9], the target named is T5, human GPC3 expressed on cells (SK-Hep1::huGPC3; HepG2, Hep3B and MKN-45 tumor cells) (human, UniProt P51654 25-554).
T5 construct: whole, on cells; also called GPC3-positive tumor cells; human GPC3-expressing cells
The test can be described thus: flow cytometry, HepG2 tumor cells (GPC3 high), detection labelled anti-human IgG, GeoMean BL1-H. As for the experimental part:
as §5
For flow cytometric analysis, tumor cell lines with different GPC3 expression levels (high to moderate expression: HepG2>Hep3B>MKN-45) and GPC3 negative cell line NCI-N87 were incubated with an exemplary fusion protein SEQ ID NOs: 87 and 82, the GPC3 antibody or the CD137 specific lipocalin mutein (Fc fusion) as included in the fusion protein (SEQ ID NOs: 81 and 82 and SEQ ID NO: 98, respectively), a reference CD137 antibody SEQ ID NOs: 26 and 27, or an isotype control (SEQ ID NO: 24 and 25), and detected using a fluorescently labeled anti-human IgG antibody as described in Example 6.

B1: previously known CD137/GPC3 bispecific fusion protein (SEQ ID NO: 83) (other)
chain: QDSTSDLIPAPPLSKVPLQQNFQDNQFQGKWYVVGRAGNVGLREDKDPPKMWATIYELKEDKSYDVTNVRFARKKCTYSIGTFVPGSQPGEFTLGQIKSEPGGTANLVRVVSTNYNQHAMVFFKEVYQNREIFFIILYGRTKELTSELKENFIRFSKSLGLPENHIVFPVPIDQCIDGGGGGSGGGGSGGGGS[omitted - human IgG4 Fc with S228P F234A L235A (EU numbers)]GGGGSGGGGSGGGGSQDSTSDLIPAPPLSKVPLQQNFQDNQFHGKWYVVGQAGNIRLREDKDPIKMMATIYELKEDKSYDVTMVKFDDKKCMYDIWTFVPGSQPGEFTLGKIKSFPGHTSSLVRVVSTNYNQHAMVFFKFVFQNREEFYITLYGRTKELTSELKENFIRFSKSLGLPENHIVFPVPIDQCIDG
Regarding B1, the EC50 stood at 410 pM in [1]; 150 pM in [4]; 240 pM in [5]; 4680 pM in test [6]; 4200 pM in [7]; 1000 pM in test [8]. The Kd in test [2] came to 669 pM; in test [3] it was 737 pM. Besides, the koff in test [2] was determined as 0.000141 s⁻¹; in [3], 0.000151 s⁻¹. The kon in [2] came out at 211000 M⁻¹ s⁻¹; in [3], 205000 M⁻¹ s⁻¹.

B2: CD137 specific lipocalin mutein (Fc fusion) (SEQ ID NO: 98) (Fc fusion)
chain: [omitted - human IgG4 Fc with S228P F234A L235A (EU numbers)]GGGGSGGGGSGGGGSQDSTSDLIPAPPLSKVPLQQNFQDNQFHGKWYVVGQAGNIRLREDKDPIKMMATIYELKEDKSYDVTMVKFDDKKCMYDIWTFVPGSQPGEFTLGKIKSFPGHTSSLVRVVSTNYNQHAMVFFKFVFQNREEFYITLYGRTKELTSELKENFIRFSKSLGLPENHIVFPVPIDQCIDG
B2: a half-maximal effect in test [6] (EC50) was put at 18000 pM. Moreover, the binding result in [9] is “no binding (tested: about 200 nM)”.
